Molecules are shown by their SMILES. This continues a long series; more values of the same kind are listed elsewhere.

Common to all, as to type: ADME, organism-based, Macaca mulatta
The nature of data set [1]: Drug level in normal rhesus monkey cerebellum assessed as standard uptake value at 81.2 MBq, iv after 12 mins by microPET. As to conditions: in vivo, 0.2 h.
The nature of data set [2]: Drug level in normal rhesus monkey white matter assessed as standard uptake value at 81.2 MBq, iv after 115 mins by microPET. To be noted: in vivo.
The nature of data set [3]: Drug level in normal rhesus monkey parietal cortex assessed as standard uptake value at 81.2 MBq, iv after 8 mins by microPET. To be noted: in vivo.
A short description of data set [4]: Drug level in normal rhesus monkey pons assessed as standard uptake value at 81.2 MBq, iv after 27.5 mins by microPET. As to conditions: in vivo.
The nature of data set [5]: Drug level in normal rhesus monkey frontal cortex assessed as standard uptake value at 81.2 MBq, iv after 165 mins by microPET. To be noted: in vivo, 2.75 h.
The nature of data set [6]: Drug level in normal rhesus monkey thalamus assessed as standard uptake value at 81.2 MBq, iv after 6 mins by microPET. As to conditions: in vivo, 0.1 h.
Data set [7] can be described thus: Drug level in normal rhesus monkey thalamus assessed as standard uptake value at 81.2 MBq, iv after 47.5 mins by microPET. As to conditions: in vivo.
A short description of data set [8]: Drug level in normal rhesus monkey thalamus assessed as standard uptake value at 81.2 MBq, iv after 175 mins by microPET. To be noted: in vivo.
Data set [9] is described as follows: Drug level in normal rhesus monkey cerebellum assessed as standard uptake value at 81.2 MBq, iv after 42.5 mins by microPET. As to conditions: in vivo.
The nature of data set [10]: Drug level in normal rhesus monkey thalamus assessed as standard uptake value at 81.2 MBq, iv after 135 mins by microPET. As to conditions: in vivo, 2.25 h.
Data set [11] can be described thus: Drug level in normal rhesus monkey pons assessed as standard uptake value at 81.2 MBq, iv after 52.5 mins by microPET. As to conditions: in vivo, 0.875 h.
Data set [12] in a line: Drug level in normal rhesus monkey parietal cortex assessed as standard uptake value at 81.2 MBq, iv after 135 mins by microPET. As to conditions: in vivo, 2.25 h.
The nature of data set [13]: Drug level in normal rhesus monkey frontal cortex assessed as standard uptake value at 81.2 MBq, iv after 75 mins by microPET. As to conditions: in vivo, 1.25 h.
The nature of data set [14]: Drug level in normal rhesus monkey pons assessed as standard uptake value at 81.2 MBq, iv after 105 mins by microPET. To be noted: in vivo, 1.75 h.
Data set [15] is described as follows: Drug level in normal rhesus monkey pons assessed as standard uptake value at 81.2 MBq, iv after 47.5 mins by microPET. To be noted: in vivo.
The nature of data set [16]: Drug level in normal rhesus monkey parietal cortex assessed as standard uptake value at 81.2 MBq, iv after 1.5 mins by microPET. To be noted: in vivo, 0.025 h.
Data set [17] is described as follows: Drug level in normal rhesus monkey thalamus assessed as standard uptake value at 81.2 MBq, iv after 10 mins by microPET. To be noted: in vivo.
Data set [18] is described as follows: Drug level in normal rhesus monkey parietal cortex assessed as standard uptake value at 81.2 MBq, iv after 95 mins by microPET. As to conditions: in vivo.
The nature of data set [19]: Drug level in normal rhesus monkey cerebellum assessed as standard uptake value at 81.2 MBq, iv after 2.5 mins by microPET. As to conditions: in vivo.
A short description of data set [20]: Drug level in normal rhesus monkey frontal cortex assessed as standard uptake value at 81.2 MBq, iv after 8 mins by microPET. To be noted: in vivo.
Data set [21] can be described thus: Drug level in normal rhesus monkey thalamus assessed as standard uptake value at 81.2 MBq, iv after 165 mins by microPET. As to conditions: in vivo, 2.75 h.
A short description of data set [22]: Drug level in normal rhesus monkey pons assessed as standard uptake value at 81.2 MBq, iv after 65 mins by microPET. To be noted: in vivo.
A short description of data set [23]: Drug level in normal rhesus monkey pons assessed as standard uptake value at 109.4 MBq, iv after 4.5 mins by microPET. As to conditions: in vivo, 0.075 h.
Data set [24] is described as follows: Drug level in normal rhesus monkey cerebellum assessed as standard uptake value at 109.4 MBq, iv after 1.5 mins by microPET. To be noted: in vivo, 0.025 h.
The nature of data set [25]: Drug level in normal rhesus monkey pons assessed as standard uptake value at 109.4 MBq, iv after 69 mins by microPET. To be noted: in vivo, 1.15 h.
Data set [26] can be described thus: Drug level in normal rhesus monkey parietal cortex assessed as standard uptake value at 109.4 MBq, iv after 87 mins by microPET. To be noted: in vivo, 1.45 h.
Data set [27] is described as follows: Drug level in normal rhesus monkey parietal cortex assessed as standard uptake value at 109.4 MBq, iv after 1.5 mins by microPET. As to conditions: in vivo, 0.025 h.
Data set [28] is described as follows: Drug level in normal rhesus monkey cerebellum assessed as standard uptake value at 109.4 MBq, iv after 0.125 mins by microPET. As to conditions: in vivo, 7 s.
A short description of data set [29]: Drug level in normal rhesus monkey parietal cortex assessed as standard uptake value at 109.4 MBq, iv after 129 mins by microPET. To be noted: in vivo, 2.15 h.
Data set [30] in a line: Drug level in normal rhesus monkey white matter assessed as standard uptake value at 109.4 MBq, iv after 105 mins by microPET. To be noted: in vivo, 1.75 h.
Data set [31] in a line: Drug level in normal rhesus monkey parietal cortex assessed as standard uptake value at 96.3 MBq, iv after 125 mins by microPET. As to conditions: in vivo.
Data set [32] can be described thus: Drug level in normal rhesus monkey frontal cortex assessed as standard uptake value at 96.3 MBq, iv after 105 mins by microPET. To be noted: in vivo, 1.75 h.
The nature of data set [33]: Drug level in normal rhesus monkey parietal cortex assessed as standard uptake value at 96.3 MBq, iv after 65 mins by microPET. As to conditions: in vivo.
Data set [34] can be described thus: Drug level in normal rhesus monkey parietal cortex assessed as standard uptake value at 96.3 MBq, iv after 145 mins by microPET. To be noted: in vivo.
A short description of data set [35]: Drug level in normal rhesus monkey thalamus assessed as standard uptake value at 96.3 MBq, iv after 8 mins by microPET. To be noted: in vivo.
Data set [36] can be described thus: Drug level in normal rhesus monkey pons assessed as standard uptake value at 96.3 MBq, iv after 175 mins by microPET. As to conditions: in vivo.
A short description of data set [37]: Drug level in normal rhesus monkey parietal cortex assessed as standard uptake value at 96.3 MBq, iv after 85 mins by microPET. To be noted: in vivo.
A short description of data set [38]: Drug level in normal rhesus monkey cerebellum assessed as standard uptake value at 96.3 MBq, iv after 57.5 mins by microPET. To be noted: in vivo.
The nature of data set [39]: Drug level in normal rhesus monkey pons assessed as standard uptake value at 96.3 MBq, iv after 52.5 mins by microPET. To be noted: in vivo, 0.875 h.
Data set [40] can be described thus: Drug level in normal rhesus monkey cerebellum assessed as standard uptake value at 96.3 MBq, iv after 115 mins by microPET. To be noted: in vivo.
Data set [41] can be described thus: Drug level in normal rhesus monkey cerebellum assessed as standard uptake value at 96.3 MBq, iv after 42.5 mins by microPET. To be noted: in vivo.
A short description of data set [42]: Drug level in normal rhesus monkey frontal cortex assessed as standard uptake value at 96.3 MBq, iv after 85 mins by microPET. As to conditions: in vivo.
Data set [43] is described as follows: Drug level in normal rhesus monkey parietal cortex assessed as standard uptake value at 96.3 MBq, iv after 8 mins by microPET. As to conditions: in vivo.
Data set [44] is described as follows: Drug level in normal rhesus monkey frontal cortex assessed as standard uptake value at 96.3 MBq, iv after 0.5 mins by microPET. As to conditions: in vivo.

Consider `CNc1ccc2nc(-c3ccc([18F])cc3)sc2c1`, for which the SUV came out at 2.575 in data set [1]; 4.086 in data set [2]; 5.021 in data set [3]; 5.233 in data set [4]; 4.598 in data set [5]; 4.921 in [6]. Moreover, the SUV in data set [7] worked out at 5.274; in [8], 4.58; in [9], 2.237; in data set [10] it was 5.266; in data set [11], 5.634; in [12] it was 2.47. The SUV in [13] is recorded as 5.076; in [14] it was 5.55; in data set [15], 5.189; in data set [16], 3.304; in data set [17], 4.593; in [18], 2.875. For the same compound, the SUV in data set [19] came out at 2.019; in data set [20], 5.469; in data set [21], 4.882; in data set [22], 5.562.

`Nc1ccc2nc(-c3ccc([18F])cc3)sc2c1`: the SUV in data set [23] came to 3.76; in data set [24] it was 4.76; in [25], 4.94; in data set [26] it was 3.86; in [27], 3.41; in [28], 0.03. Also, the SUV in data set [29] worked out at 3.52; in data set [30] it was 3.75.

`CN(C)c1ccc2nc(-c3ccc([18F])cc3)sc2c1`: the SUV in data set [31] was determined as 1.26; in data set [32], 1.51; in [33], 1.57; in data set [34] it was 1.21; in [35] it was 2.13; in data set [36], 1.87. Further, the SUV in data set [37] worked out at 1.44; in data set [38], 1.2; in [39], 1.75; in data set [40], 0.95; in data set [41], 1.35; in data set [42], 1.72. In addition, the SUV in [43] was 2.17; in [44] it was 0.62.
